Read counts are not given, so values of variants with three or more changes are uncertain.
B1: OR4K15 (parent)
chain: GUUAACGGUCAUAGGCCAUGGAAACUAGGAGCACCAUUUCGCUGCCAGUGAAGAAAUGAACAAAGAAAAUCUGGGCCAGGCAGGCAUCAAAAGAAAUAGUCUUGCGCUCAACCAGAAAGUCUGUAAUCAUUUUAAGGGUA

Variants of: B1
Assay: self-cleavage, relative activity (ratio to wild type); higher = more cleavage; in vitro, sequencing; the parent is a self-cleaving ribozyme

Row | Variant | self-cleavage
1 | GUUAACGGCCAUAGGCCAUGGAAACUAGGAGCACCAUCUCGCUGCCAGUGAAGAAAUGAACAAAGAAAAUCUGGGCCAGGCAGGCAUCAAAAGAAAUAGUCUUGCGCUCAGCCAGAAAGUCUGUAAUCAUUUUAAGGGUA [U9C U38C A111G] | 0.04
2 | GUUAACGGCCAUAGGCCAUGGAAACCAGGUGCACCAUUUCGCUGCCAGUGAAGAAAUGAACAUAGAAAAUCUGGGCCAGGCAGGCAUCUAAAGAAAUAGUCUUGCGCUCAACCAGAAAGUCUGUAAUCAUUUUAAGGGUA [U9C U26C A30U A63U A89U] | 1.4
3 | GUUAACGGCCAUAGGCCAUGGAAACUAGGAGCACCACUUCGCUGCCAGUGAAGAAAUGAACAAAGAAAAUCUGGGCCAGGCAGGCAUCAAAAGAAAUAGUCUUGCGCUCAACCAGAAAGUCCGUAAUCAUUUUAAGGGUA [U9C U37C U122C] | 1.16
4 | GUUAACGGCCAUAGGCCAUGGAAACUAGGAGCACCAUUUCGCUGCCAGCGAAGAAAUGAACAAAGAAAAUCUGGGCCAGGCAGGCAUCAAAAGAAAUAGUCUUGCGCUCAACCAGAAAGUCUGUAAUCAUUUCAAGGGUA [U9C U49C U133C] | 2.09
5 | GUUAACGGCCAUAGGCCAUGGAAACCAGGAGCACCAUUUCGCUGCCAAUGAAGGGAUGAACAAAGAAAAUCUGGGCCAGGCAGGCAUCAAAAGAGAUAGUCUUGCGCUCAACCAGAAAGUCUGUAAUCAUUUUAAGGGUA [U9C U26C G48A A54G A55G A95G] | 1.23
6 | GUUAACGGCCAUAGGCCAUGGAAACUAGGAGCACCAUUUCGCUGCCAGUGAAGAAAGGAACAAAGAAAAUCUGGGCCAGGCAGGCAUCAAGAGAAAUAGUCUUGCGCACAACCUGAAGGUCUGUAAUCAUUUUAAGGGUA [U9C U57G A91G U108A A114U A118G] | 0.01
7 | GUUAACGGCCAUAGGCCACGGAAACUAGGAGCACCACUUCGCUGCCAGUGAAGAAAUGAACGAAGAAAAUCUGGGCCAGGCAGGCAUCAAAAGAAAUAGCCUUGCGCUCAACCAGAAAGUCUGUAAUCAUUUUAAGGGUA [U9C U19C U37C A62G U100C] | 1.69
8 | GUUAACGGCCAUAGGCCACGGAAACUAGGAGCACCAUUUCGCUGCCAGUGAAGAAAUGAACAAAGAAAAUCUGGGCCGGGCAGGCAUCAAAAGAAAUAGUCUUGCGCUCAACCAGAAAGUCUGUAAUCAUUUUAAGGGUA [U9C U19C A78G] | 0.46
9 | GUUAACGGCCAUAGGCCAUGGAAACUAGGAGCACCAUUCCGCUGCCAGUGAAGAAAUGAACAAAGAAAAUCUGGGCCAGGCAGGCACCAAAAGAAAUAGUCUUGCGCUCAACCAGAAAGUCUGUAAUCAUUUUAAGGGUA [U9C U39C U87C] | 1.59
10 | GUUAACGGCCAUAGGCCAUGGAAACUAGGAGCACCAUUUCGCUGCCAGUGAAGAAACGAACAAAGAGAAUCUGGGCCAGGCAGGCAUCAAAAGAAAUAGUCUUGCGCUCAACCGGAAAGUCUGUAAUCAUUUUAAGGGUA [U9C U57C A67G A114G] | 0.31
11 | GUUAACGGCCAUAGGCCAUGGAAACUAGGAGCACCAUUUCGCUGCCAGCGAAGAAAUGAACGAAGAAAAUCUGGGCCAGGCAGGCAUCAAAAGAAACAGUCUUGCGCUCAACCAGAAAGUCUGUGAUCAUUUUAAGGGUA [U9C U49C A62G U97C A125G] | 0.31
12 | GUUAACGGCCAUAGGCCAUGGAAACUAGGAGCACCAUUUCGCCGCCAGUGAAGAGAUGAACAAAGAAAAUCUGGGCCAGGCAGGCAUCAAGAGAAAUAGUCUUGCGCUCAACCAGAAAGUCUGUAAUCAUUUUAAGGGUA [U9C U43C A55G A91G] | 1.05
13 | GUUAACGGCCAUAGGCCAUGGAAACUAGGAGCACCAUUUCGCAGCCAGUGAAGAAAUGAACAAAGAAAAUCUGGGCCAGGCAGGCAUCAAAAGAAGUAGUCUUGCGCUCAACCAGAAAGUCUGUAAUCAUUUUAAGGGUA [U9C U43A A96G] | 2.31
14 | GUUAACGGCCAUAGGCCACGGAAACUAGGAGCACCAUUACGCUGCCAGUGAAGAAAUGAACAAAGAAAAUCUGGGCCAGGCAGGCAUCAAAAGAAAUAGUCUUGCGCUCAACCAGAAAGUCUGUAAUCAUUUUAAGGGUA [U9C U19C U39A] | 1.74
15 | GUUAACGGCCAUAGGCCAUGGAAACUAGGAGCACCAUUACGCUGCCAGUGAAGAAAUGAACAGAGAAGAUCUGGGCCAGGCAGGCAUCAAAAGAAGUAGUCUUGCGCUCAACUAGAAAGUCUGUAAUCAUUUUAAGGGUA [U9C U39A A63G A68G A96G C113U] | 0.26
16 | GUUAACGGCCAUAGGCCAUGGAAACUAGGAGCACCACUUCGCUGCCAGUGAAGAAAUGAACAAAGAAAAUCUGGGCCAGGCAGGCAUCAAAAGAAAUAGUCUUGCUCUCAACCAGAAAGUCUGUAAUCAUUUUAAGGGUA [U9C U37C G106U] | 0.01
17 | GUUAACGGCCAUAGGCCAUGGAAACUAGGAGCACCAUCUCGCUGCCAGUGAAGAAAUGAACAAAGAAAAUCUGGGCCAGGCAGGCAUCAAAAGAAGUAGUCUUGCGCUCAACCAGAAAGUCUGUAAUCAUUUUAAGGGUA [U9C U38C A96G] | 2.56
18 | GUUAACGGCCAUAGGCCAUGGAAACUAGGAGCACCAUUUCGCCGCCAGUGAGGAAAUGAACAAAGAAAAUCUGGGCCAGGCAGGCAUCAAAAGAAAUAGUCGUGCGCUCAACCAGAAAGUCUGUAAUCAUUUUAAGGGUA [U9C U43C A52G U102G] | 0.85
19 | GUUAACGGCCAUAGGCCAUGGAAACUAGGAGCACCAUUUCGCUGCCAGCGAAGAAAUGAACAAAGAAAAUCUGGGCCAGGCGGGCAUCAAAAGAAAUAGCCUUGCGCUCAACCAGAAAGUCUGUAAUCAUUUUAAGGGUA [U9C U49C A82G U100C] | 1.8
20 | GUUAACGGCCAUAGGCCAUGGAAACUAGGAGCACCAUAUCGCUGCCAGUGAAGAAAUGAACAAAGAAAAUCUGGGCCAAGCAGGCAUCAAAAGAAAUAGUCUUGCGCUCAACCAGAAAGUCUGUAGUCAUUUUAAGGGUA [U9C U38A G79A A126G] | 0.12

Source: the RNAGym collection of RNA variant scans (doi:10.7554/elife.90254)
